Experimental data as given in the supplement of paper PMC12217912.
The other results are listed elsewhere or left out. Sequences were assembled here from the parent chain. Values near 0.05 are background.

B1: TEV protease; numbered along this chain (parent)
chain: MGESLFKGPRDYNPISSSICHLTNESDGHTTSLYGIGFGPFIITNKHLFRRNNGTLVVQSLHGVFKVKDTTTLQQHLVDGRDMIIIRMPKDFPPFPQKLKFREPQREERICLVTTNFQTKSMSSMVSDTSCTFPSGDGIFWKHWIQTKDGQCGSPLVSTRDGFIVGIHSASNFTNTNNYFTSVPKNFMELLTNQEAQQWVSGWRLNADSVLWGGHKVFMVKPEEPFQPVKEATQL

Variants of: B1
Experiment: raw area under fraction-flipped curve 0-4 h after induction (AUC4h, not background-subtracted), DNA-recorder readout of cleavage of the substrate (dimensionless); higher = more cleavage of the substrate by the protease variant
Conditions: temperature: 34 °C; time window: 0-4 h after rhamnose induction
Experimental: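 In vivo DNA recorder in E. coli TOP10(DE3) ΔrhaA at 34 °C. Each TEVp single-site mutant (parent TEVp 0) is paired with a single-site variant of the 7-mer TEVs (canonical ENLYFQ|S). The substrate sits between flexible linkers in a Bxb1-sfGFP-TEVs-SsrA fusion, so cleavage stabilises Bxb1 and speeds flipping of a recombination array, read by NGS. The value is the raw area under the fraction-flipped curve over 0-4 h after rhamnose induction (AUC4h), with ≥20 reads per time point. It is not background-subtracted; inactive controls average about 0.047.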
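Further: Bxb1 expression induced with 0.2% (w/v) L-rhamnose at OD600 near 0.5, cultures sampled hourly, flipped fraction per protease–substrate barcode pair counted by paired-end Illumina sequencing.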

| Variant | area with substrate ENLYFAS | area with substrate ENLYFCS | area with substrate ENLYFES | area with substrate ENLYFFS | area with substrate ENLYFIS | area with substrate ENLYFKS | area with substrate ENLYFLS | area with substrate ENLYFMS | area with substrate ENLYFPS | area with substrate ENLYFRS | area with substrate ENLYFTS | area with substrate ENLYFWS | area with substrate ENLYFDS | area with substrate ENLYFGS | area with substrate ENLYFHS | area with substrate ENLYFNS | area with substrate ENLYFSS | area with substrate ENLYFVS | area with substrate ENLYFYS |
| --- | --- | --- | --- | --- | --- | --- | --- | --- | --- | --- | --- | --- | --- | --- | --- | --- | --- | --- | --- |
| L22N | 0.044 | 0.0579 | 0.0653 | 0.0643 | 0.0553 | 0.0486 | 0.0499 | 0.0527 | 0.0569 | 0.0427 | 0.0524 | 0.038 | – | – | – | – | – | – | – |
| I15H | 0.0873 | 0.0592 | – | 0.067 | 0.0545 | 0.0563 | 0.0582 | 0.0641 | 0.054 | – | – | – | 0.0677 | 0.0627 | 0.0652 | 0.0545 | 0.0568 | 0.0411 | 0.0571 |
| Y12G | 0.0617 | 0.049 | 0.0642 | 0.0779 | 0.0577 | 0.0595 | 0.0537 | 0.0637 | 0.0657 | 0.0574 | 0.0521 | 0.0649 | 0.0481 | 0.0469 | – | 0.0699 | – | – | – |
| T23H | 0.0639 | 0.0583 | – | 0.0609 | 0.0477 | 0.0617 | 0.0586 | 0.0642 | 0.0633 | – | 0.0481 | 0.0517 | 0.0621 | – | – | 0.0688 | – | – | 0.0593 |
| C20P | 0.0512 | 0.0499 | 0.0531 | 0.0577 | 0.0474 | 0.0517 | 0.0374 | 0.0537 | 0.0514 | 0.0609 | 0.0518 | 0.0351 | – | – | 0.0537 | – | 0.0354 | 0.0486 | – |
| G2D | 0.11 | 0.0542 | 0.0705 | 0.0633 | 0.06 | – | 0.0559 | 0.0503 | 0.0611 | 0.0595 | 0.0556 | 0.0616 | – | 0.0606 | – | 0.0639 | 0.0559 | – | 0.0545 |
| I19M | 0.0477 | 0 | 0.0677 | – | 0.0536 | 0.0627 | – | 0.0745 | 0.0656 | 0.0479 | 0.0619 | 0.0511 | 0.0568 | 0.0617 | 0.0568 | 0.0654 | 0.0574 | 0.0675 | 0.0737 |
| S18W | 0.0627 | 0.0552 | 0.0548 | 0.064 | 0.0495 | 0.0506 | – | 0.0387 | 0.0511 | 0.0531 | – | 0.0357 | – | 0.0641 | 0.0539 | 0.0554 | – | – | 0.056 |
| S18E | 0.0589 | 0.0437 | 0.0574 | 0.051 | 0.0524 | 0.0563 | – | 0.06 | 0.0588 | 0.0479 | 0.0419 | – | 0.0561 | – | 0.0875 | 0.0653 | 0.0608 | – | 0.0596 |
| F6V | 0.0661 | – | – | 0.0545 | 0.0642 | – | 0.0743 | 0.0828 | 0.0716 | – | 0.0721 | – | 0.0573 | 0.0491 | 0.0958 | – | – | 0.0679 | – |
| F6M | 0.068 | 0.0711 | – | 0.0621 | 0.0482 | 0.0608 | – | 0.0702 | – | – | – | 0.074 | 0.0597 | – | 0.0602 | – | 0.0601 | 0.0695 | – |
| H21R | 0.0663 | 0.0262 | 0.0647 | 0.069 | 0.0596 | 0.0608 | 0.0603 | 0.0594 | 0.0492 | – | 0.0585 | 0.0547 | 0.0884 | – | 0.0492 | 0.066 | 0.0625 | 0.0539 | – |
| H21L | 0.0456 | 0.0638 | 0.0714 | 0.068 | 0.0476 | 0.0619 | 0.0695 | 0.0747 | – | – | 0.0606 | – | 0.0452 | – | 0.0612 | – | – | 0.0292 | 0.064 |
| D11Y | 0.085 | 0.0589 | 0.061 | 0.0647 | 0.06 | 0.0657 | – | 0.0638 | 0.0633 | 0.0659 | 0.0538 | 0.0766 | 0.055 | 0.0571 | 0.0623 | 0.0594 | – | 0.0485 | 0.0567 |
| D11N | 0.0722 | 0.0601 | 0.043 | 0.0681 | 0.0668 | 0.0653 | – | 0.0544 | 0.0594 | 0.0665 | 0.0475 | 0.055 | 0.0708 | – | – | 0.0825 | – | 0.066 | 0.0533 |
| D11G | 0.0589 | 0.0661 | 0.0628 | 0.0501 | 0.0551 | 0.0642 | – | 0.0674 | 0.0568 | 0.0628 | 0.0646 | 0.0713 | 0.0557 | – | 0.0575 | 0.062 | 0.0459 | 0.0637 | – |
| D11H | 0.0492 | 0.0543 | 0.0486 | 0.0687 | 0.0647 | 0.0579 | 0.0793 | 0.0645 | 0.0524 | 0.0638 | 0.0616 | 0.0648 | 0.0576 | 0.0726 | 0.0643 | 0.0669 | 0.0571 | 0.0204 | 0.0801 |
| P14N | 0.0561 | – | 0.0769 | 0.0731 | 0.063 | 0.0624 | 0.076 | 0.0641 | 0.063 | 0.0407 | 0.0747 | 0.057 | 0.064 | 0.0554 | 0.0683 | – | 0.068 | 0.0608 | 0.0457 |
| P14G | 0.0508 | 0.051 | – | 0.0646 | 0.0666 | 0.0686 | – | 0.0737 | 0.061 | 0.0548 | 0.0592 | 0.0638 | 0.0584 | 0.0539 | – | 0.0402 | – | – | 0.0917 |
| R10Q | 0.0474 | 0.0659 | 0.0678 | 0.0658 | 0.0595 | 0.0533 | 0.0574 | 0.0812 | 0.0636 | 0.0512 | 0.0569 | 0.0762 | 0.0642 | 0.0651 | – | 0.058 | 0.0419 | – | 0.0613 |
| R10H | 0.0511 | 0.0643 | 0.057 | 0.109 | 0.0608 | – | 0.0566 | 0.0625 | 0.0614 | – | 0.0722 | 0.061 | – | 0.0501 | 0.0548 | 0.0634 | 0.0762 | – | 0.0451 |
| P9Y | 0.049 | – | – | – | 0.0628 | 0.0526 | 0.0489 | – | 0.0558 | – | 0.0796 | 0.05 | – | – | 0.0746 | – | – | – | – |
| P9K | 0.087 | 0.0537 | 0.0524 | 0.0709 | 0.061 | 0.0628 | 0.0501 | – | 0.0587 | 0.0713 | 0.0518 | – | 0.055 | 0.0567 | 0.0517 | 0.0634 | 0.067 | – | 0.0773 |
| N13Y | 0.0661 | 0.063 | 0.0694 | – | 0.0576 | – | 0.0567 | 0.0605 | 0.0553 | – | – | 0.056 | 0.0635 | 0.0569 | 0.0646 | – | 0.0585 | – | 0.0691 |
